Measured values as given in PubChem BioAssay AID485344 (National Center for Advancing Translational Sciences (NCATS), 2010).
Hit rate of the full screen: of about 340,000 compounds, about 6,900 (2%) were called active. Rule as the data show it: active = inhibition above about 30%; inactive = below that, where a call was filed. This is a selection; strong and weak results do not stand in their true shares. Where no call is shown, the source filed none.

Biological target: D(2) dopamine receptor (Homo sapiens) (UniProt P14416)
Test: HTS Assay for Allosteric Antagonists of the Human D2 Dopamine Receptor: Primary Screen for Antagonists; also: 0% is about no effect
Conditions: HEK293 TREx D2 cells, calcium flux, dopamine EC80; at 10 µM; stronger effect = higher value
How it was run: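 Antagonism is scored as inhibition of an EC80 dopamine-evoked calcium signal in a force-coupled, tetracycline-inducible HEK293 T-REx D2 line, with compound present 180 s before agonist.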

Sequence of UniProt P14416 (P14416 whole entry, looked up): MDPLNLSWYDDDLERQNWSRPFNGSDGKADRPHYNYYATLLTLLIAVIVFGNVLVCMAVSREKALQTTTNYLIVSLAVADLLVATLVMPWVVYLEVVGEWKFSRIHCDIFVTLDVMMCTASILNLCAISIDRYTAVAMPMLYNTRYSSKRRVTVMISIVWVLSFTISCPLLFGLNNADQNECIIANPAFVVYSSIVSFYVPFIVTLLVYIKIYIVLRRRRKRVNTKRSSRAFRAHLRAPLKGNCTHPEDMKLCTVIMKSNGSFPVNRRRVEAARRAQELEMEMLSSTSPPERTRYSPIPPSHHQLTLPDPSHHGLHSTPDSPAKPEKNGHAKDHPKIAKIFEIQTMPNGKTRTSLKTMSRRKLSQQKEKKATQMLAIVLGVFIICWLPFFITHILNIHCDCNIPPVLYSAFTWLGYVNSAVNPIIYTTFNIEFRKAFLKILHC

Row | Structure (SMILES) | inhibition
1 | Clc1ccc(-c2nnn3c2nc(N2CCCCC2)c2ccccc23)cc1 | -3.32%
2 | CCOc1ccc(NC(=O)c2cnn3c2NC(c2ccccc2)=CC3c2cccc(OC)c2OC)cc1 (centres undefined) | -5.43%
3 | O=C(CN1CCN(c2ccccn2)CC1)Nc1ccc(OCc2ccccc2)cc1 | active: 57.3%
4 | Cc1oc2ncn(CC(C)C)c(=O)c2c1C(=O)N1CCN(c2ccccc2F)CC1 | -6.46%
5 | CCc1ccc(NC(=O)C2(c3cccs3)CCOCC2)cc1 | 18.4%
6 | Cc1cc(C)c(NC(=O)CN(c2ccccc2)S(=O)(=O)N(C)C)c(C)c1 | -8.85%
7 | CCOc1ccc(C2=C(C(C)=O)Sc3nnc(C)n3N2C(C)=O)cc1 | -10.3%
8 | Cc1c(NC(=O)Nc2ccccc2C(F)(F)F)c(=O)n(-c2ccccc2)n1C | -1.84%
9 | Cn1c(=O)n(C)c2cc(CNCc3ccc(F)cc3)ccc21 | 6.78%
10 | CCOc1ccc(NC(=O)c2cccc3c(=O)c4c([nH]c23)CCCC4)cc1 | 23.1%
11 | Cc1ccc(Cn2cnc3nc4c(cc3c2=O)CCCC4)cc1 | 19.3%
12 | Cc1cc(C)cc(-n2c(SCC(=O)Nc3ccccc3F)nc3c(oc4ccccc43)c2=O)c1 | -0.337%
13 | O=C(CS(=O)(=O)c1ccc(Cl)cc1)Nc1nc2ccc(Br)cc2s1 | 17%
14 | COc1ccc(CCNC(=O)CCN2N=C(c3ccccc3)CCC2=O)cc1OC | 7.64%
15 | CCCc1cc(C(=O)Cc2ccccn2)c(O)cc1O | active: 36.6%
16 | O=c1n(Cc2ccc([N+](=O)[O-])cc2)c2ccccc2c2nc(-c3ccccc3)nn12 | 0.208%
17 | COc1cc(C(=O)OCc2cc(=O)n3ccsc3n2)cc(OC)c1OC | 4.73%
18 | COc1ccc(NC(=O)Cn2nc(C)c3c(C)n(-c4ccccc4)nc3c2=O)cc1OC | 5.12%
19 | CCN(C(=O)c1nn(C)c2c1CSc1ccccc1-2)c1cccc(C)c1 | -1.05%
20 | CCOc1cc(-c2cc(C(=O)O)c3c(-c4ccccc4)[nH]nc3n2)ccc1O | 9.24%
21 | COc1ccc(S(=O)(=O)NCC(c2ccco2)S(=O)(=O)c2cccs2)cc1OC (centres undefined) | -8%
22 | CCOc1cc(C(=O)N2CC(=O)Nc3ccc(F)cc3C2c2ccccc2)cc(OCC)c1OCC (centres undefined) | -11.6%
23 | COc1ccc(N2CCN(CCCNC(=O)c3sc4ncccc4c3-n3cccc3)CC2)cc1 | -9.24%
24 | CC(C)OCCCNC(=O)Cn1c(-c2cccs2)cc2cc(F)ccc21 | 11.2%
25 | COc1cc2nc(NCCc3ccc(Cl)cc3)n3nc(-c4ccccc4)nc3c2cc1OC | 2.77%

Row | Structure (SMILES) | inhibition
26 | Cc1cc(C)c(NC(=O)c2cc(S(=O)(=O)N3CCCC3)cn2C)c(C)c1 | -6.33%
27 | Cc1ccc(OCCSc2nc3ccccc3n2CC(=O)N2CCOCC2)cc1C | -13.6%
28 | COc1ccc(CNc2nc(-c3ccccc3)nn2C(=O)c2ccccc2OC)cc1 | 7.03%
29 | COc1cc(Cl)c(S(=O)(=O)N2CCN(c3c(C)cccc3C)CC2)cc1Cl | -7.08%
30 | CCOC(=O)c1cc2c(=O)n3ccccc3nc2n(CC2CCCO2)c1=NC(=O)c1ccc(OCC)cc1 (centres undefined) | -4.25%
31 | CN(Cc1ccccc1)C(=O)c1c[nH]c2ccc(S(=O)(=O)Nc3ccccc3F)cc2c1=O | -28.2%
32 | OC1CCCCC1Sc1nc2ccccc2s1 (centres undefined) | active: 40.1%
33 | CCCn1cc(S(=O)(=O)c2ccc(OCC)cc2)c(=O)c2cc(C)ccc21 | 20%
34 | CCOc1ccc(-c2c(C)nn3c(C)c(C(=O)NC(C)c4ccccc4)cnc23)cc1OCC (centres undefined) | -17.6%
35 | CCCCC(=O)Nc1cc(-c2cn3cccnc3n2)ccc1C | 28.4%
36 | O=C(CCSCc1ccccc1Cl)NCCc1ccccc1 | -1.73%
37 | Cc1c(-c2cccc(NC(=O)Cc3ccccc3)c2)nc2ncccn12 | 7.47%
38 | O=C(NCc1ccccc1)c1n[nH]nc1-c1ccccc1O | active: 30.8%
39 | O=C(Cn1ccn(-c2ccc(F)c(F)c2)c(=O)c1=O)NCc1ccccc1 | 0.862%
40 | COc1ccc(Cl)cc1NC(=O)N1CCC2(CC1)Oc1ccccc1C(=O)N2Cc1ccc(F)cc1 | 26%
41 | CSc1nc2sc3c(c2c(=O)n1-c1ccc(C)cc1)CCCC3 | 14.3%
42 | CCOC(=O)c1cnn(-c2cccc(Cl)c2)c1C1CCN(C(=O)OC(C)(C)C)CC1 | 7.85%
43 | Cc1ccc(OCCSc2nc3ccc(NC(=O)COc4ccc(C)cc4)cc3s2)cc1 | -13.1%
44 | COc1ccc(NC(=O)N2CCC(n3c(C)nc4cccnc43)CC2)cc1OC | 21.3%
45 | CCOC(=O)C1=C(CN(CC)Cc2ccccc2)NC(=O)NC1c1ccc(Cl)cc1 (centres undefined) | 5.53%
46 | Fc1ccc(NCc2nc3ccccc3n2CCOc2ccccc2Cl)cc1 | 11.7%
47 | CC1CCc2c(sc3nnn(CC(=O)Nc4ccccc4Cl)c(=O)c23)C1 (centres undefined) | 6.15%
48 | CC1(C)Cc2c(sc(/N=C/N3CCCC3)c2C#N)C(C)(C)N1 | active: 32.9%
49 | CSc1ncc2c(n1)-c1ccccc1N(Cc1ccccc1C)S2(=O)=O | 2.67%
50 | COc1ccc(-n2c(=O)c3c(c4cc(OC)ccc4n3C)n(Cc3c(F)cccc3Cl)c2=O)cc1 | 3.58%

Row | Structure (SMILES) | inhibition
51 | Cc1cccc(-n2c3nc(=O)n(C)c(=O)c-3cc3c(C)nn(-c4ccccc4)c32)c1C | 8.15%
52 | COc1cccc(CCNC(=O)c2cnc3sc(N4CCCC4)nn3c2=O)c1 | 9.72%
53 | COC1(C(F)(F)F)NC(=O)N(c2ccc(F)cc2)C1=O (centres undefined) | -3.14%
54 | Cc1ccc(NC(=O)CCNS(=O)(=O)c2cccs2)cc1F | -2.41%
55 | COc1cccc(-c2nn(C)c3sc(C(=O)N4CCN(c5cccc(C(F)(F)F)c5)CC4)cc23)c1 | 5.73%
56 | Cc1cn2c(=O)cc(COC(=O)COc3ccc(F)cc3)nc2s1 | 18%
57 | CCCCNC(=O)c1ccc(-c2nc(CN3CCc4ccccc43)c(C)o2)cc1 | -9.39%
58 | COc1ccc(OC)c(S(=O)(=O)NCCc2sc(C)nc2C)c1 | 21%
59 | Cc1cccc(COc2ccc(-c3cc(C(F)(F)F)n4nc(C)cc4n3)cc2)c1 | 14.3%
60 | Cc1ccc(Nc2c3c(nc4ccccc24)CCC3)cc1F | -11.3%
61 | CCc1ccc(-c2nc3cc(NC(=O)c4ccc(F)cc4)ccc3o2)cc1 | -11.1%
62 | Cc1ccc(CNC(=O)CCN2C(=O)C(C)Oc3ccc(C)cc32)cc1 (centres undefined) | 4.55%
63 | COc1ccc(NC(=O)Cn2ncc3c4ccccc4n(Cc4ccccc4)c3c2=O)cc1OC | 4.9%
64 | COc1ccccc1-c1ncnn1-c1sc2c(c1C#N)CCCCC2 | 8.13%
65 | COc1cc(NS(=O)(=O)c2ccc3c(c2)OCC(C(=O)N2CCCC2)O3)cc(OC)c1 (centres undefined) | -9.62%
66 | Cc1ccc(NC(=O)Cn2nc(-c3ccc(Cl)cc3)c3ccccc3c2=O)cc1 | 4.77%
67 | CCN(CC)c1ccc(NC(=O)C2CCCN(S(=O)(=O)c3ccc4c(c3)oc(=O)n4C)C2)c(C)c1 (centres undefined) | 12.2%
68 | O=C(Nc1nncs1)c1ccc(Br)c(S(=O)(=O)N2CCCC2)c1 | active: 55.9%
69 | COc1cc(OC)cc(C(=O)OCC(=O)Nc2ccc3[nH]c(=O)[nH]c3c2)c1 | active: 35.5%
70 | CCC(Sc1nc2n[nH]c(C)c2c(=N)n1-c1ccc(Br)cc1)C(=O)N(CC)CC (centres undefined) | 2.63%
71 | CCOC(=O)c1c(S(=O)(=O)N2CCN(c3cc(Cl)ccc3C)CC2)c(C)n(C)c1C | 3.75%
72 | Cc1cc(C)cc(NC(=O)C2CCCN(c3nnc(-n4c(C)ccc4C)s3)C2)c1 (centres undefined) | 6.28%
73 | COc1ccc(N2CCN(C(=O)c3cc4c(s3)-c3c(C)cccc3OC4)CC2)cc1 | -2.25%
74 | CCCc1ccc(OC(=O)c2sc3ncn(Cc4cccc(F)c4)c(=O)c3c2C)cc1 | 7.98%
75 | CCCCN(C(=O)Nc1ccc(OCC)cc1)C1CCN(C(C)=O)CC1 | 11.4%

Row | Structure (SMILES) | inhibition
76 | COCCn1c(SCC(=O)Nc2ccc(Br)cc2)nc2c([nH]c3ccccc32)c1=O | -16.9%
77 | Cc1ccc(-c2onc(C)c2C)cc1S(=O)(=O)N1CCc2ccccc21 | 10.9%
78 | COC(=O)c1ccc(NC(=O)C(c2ccccc2)N2Cc3ccccc3C2=O)cc1 (centres undefined) | -7.39%
79 | CN1CCN(c2ccc(-c3nc(-c4ccccc4)no3)cc2[N+](=O)[O-])CC1 | -6.62%
80 | Cc1cccc(CCNC(=O)CCc2c(C)nc3c(-c4ccc(F)cc4)c(C)nn3c2C)c1 | -9.85%
81 | CCOc1ccc(OCCSc2ccc(S(=O)(=O)N3CCN(C)CC3)cn2)cc1 | active: 30.3%
82 | Cc1nc(-c2ccc(Cl)cc2)sc1CCNC(=O)C(=O)Nc1ccccc1C#N | 14.5%
83 | CC(C)(C)c1cc(C(=O)NNC(=O)Nc2cccc(Cl)c2)n(Cc2ccccc2)n1 | active: 49.7%
84 | CC1=Nn2c(nc3sc4c(c3c2=O)CCCC4)SC1 | active: 54.8%
85 | COCCNC(=O)c1sc2nc3n(c(=O)c2c1C)CCC3 | 13.1%
86 | COc1ccc(N2CC(c3nc(-c4ccccc4C)no3)CC2=O)cc1Cl (centres undefined) | -10.2%
87 | CCc1ccc(NS(=O)(=O)c2ccc3[nH]cc(C(=O)NCCc4ccccc4)c(=O)c3c2)cc1 | -5.12%
88 | CCOC(=O)c1cccc(NC(=O)Cn2cnc3nc4c(cc3c2=O)CCCC4)c1 | 5.35%
89 | CCN(CC)CCCNC(=O)c1ccc2c(c1)NC(=O)C(CS(=O)(=O)Cc1ccc(F)cc1Cl)N2 (centres undefined) | 11.2%
90 | COc1cccc(-c2noc(COc3cccc(C)c3C)n2)c1 | -1.37%
91 | Cc1ccc2nc(N3CCN(c4ccc(F)cc4)CC3)c3nnnn3c2c1 | -1.77%
92 | Cc1ccc(C(c2cc(Cl)c3cccnc3c2O)N2CCN(C)CC2)cc1 (centres undefined) | active: 38.6%
93 | CCOC(=O)c1c(NC(=O)COc2ccc(OC)cc2)sc(C(=O)N(CC)CC)c1C | 2.15%
94 | N#C/C(=C\c1ccccc1)c1nc(-c2cc3c(ccc4ccccc43)oc2=O)cs1 | -2.43%
95 | CCCCN(CC)CCNC(=O)c1nn(-c2ccc(OC)cc2)c(=O)c2c1c1ccccc1n2C | 0.79%
96 | Fc1ccc(CN2CCN(c3ncccn3)CC2)cc1 | active: 83.7%
97 | Cc1cccc(CNC(=O)C2CCN(S(=O)(=O)c3cccc4nonc34)CC2)c1 | 20.4%
98 | CCC1=Nc2cc(C(=O)N3CCC(C)CC3)ccc2Sc2ccc(C)cc21 | 1.53%
99 | Cc1ccc(C)c(NC(=O)C2CCCN2S(=O)(=O)c2ccc3c(c2)CCCC(=O)N3)c1 (centres undefined) | -1.81%
